Source: PMC4336329 (PLoS ONE, 2015)
Among all 310,000 compounds or so, about 14,000 (4.5%) showed an effect of 50% or more. The effect is printed as a negative number. This is one part of the list.

Each compound was assayed against human ether-à-go-go-related gene (hERG) potassium channel (human, UniProt Q12809) (assay: primary screen, population patch clamp on CHO cells stably expressing hERG).
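Also: peak tail current of the secondary pulse compared with the same well before compound.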

human ether-à-go-go-related gene (hERG) potassium channel, sequence (Q12809 whole entry, looked up): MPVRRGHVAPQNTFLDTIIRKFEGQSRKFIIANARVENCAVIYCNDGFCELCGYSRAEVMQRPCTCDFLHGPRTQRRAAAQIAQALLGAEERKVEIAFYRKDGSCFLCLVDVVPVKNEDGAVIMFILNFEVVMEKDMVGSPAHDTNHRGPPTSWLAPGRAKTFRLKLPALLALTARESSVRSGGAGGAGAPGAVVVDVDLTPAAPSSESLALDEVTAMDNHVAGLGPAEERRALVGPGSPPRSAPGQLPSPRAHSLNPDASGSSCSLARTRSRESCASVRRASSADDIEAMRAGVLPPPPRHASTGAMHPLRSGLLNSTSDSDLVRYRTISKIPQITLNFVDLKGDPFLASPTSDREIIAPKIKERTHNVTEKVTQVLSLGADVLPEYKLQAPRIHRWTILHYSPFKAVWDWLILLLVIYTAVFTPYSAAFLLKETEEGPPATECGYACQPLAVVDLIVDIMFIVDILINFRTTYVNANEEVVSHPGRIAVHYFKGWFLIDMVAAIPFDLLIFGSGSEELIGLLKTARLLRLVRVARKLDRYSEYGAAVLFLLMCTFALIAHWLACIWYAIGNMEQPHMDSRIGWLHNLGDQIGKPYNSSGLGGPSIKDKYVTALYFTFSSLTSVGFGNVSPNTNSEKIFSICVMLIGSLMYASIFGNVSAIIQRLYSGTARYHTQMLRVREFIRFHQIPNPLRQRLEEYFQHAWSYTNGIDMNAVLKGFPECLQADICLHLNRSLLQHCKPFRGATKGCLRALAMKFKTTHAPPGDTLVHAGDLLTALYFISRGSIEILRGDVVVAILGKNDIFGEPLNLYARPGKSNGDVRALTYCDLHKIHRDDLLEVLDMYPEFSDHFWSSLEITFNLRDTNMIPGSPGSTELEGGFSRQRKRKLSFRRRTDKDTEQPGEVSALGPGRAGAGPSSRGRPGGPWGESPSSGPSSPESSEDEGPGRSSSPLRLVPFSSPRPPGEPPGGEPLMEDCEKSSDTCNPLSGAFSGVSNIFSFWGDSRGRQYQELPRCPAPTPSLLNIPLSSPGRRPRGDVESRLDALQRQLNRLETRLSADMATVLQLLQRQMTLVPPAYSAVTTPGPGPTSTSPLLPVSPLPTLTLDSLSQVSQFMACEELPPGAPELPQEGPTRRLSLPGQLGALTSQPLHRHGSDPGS

| Compound | hERG current change (%, negative = inhibition) at 10uM |
| --- | --- |
| Cc1cccc(-n2ncc3c2CCCC3NC(=O)Cc2c(C)noc2C)c1C (centres unmarked) | 15.9% |
| O=C(CCCN1C(=O)/C(=C/c2ccco2)SC1=S)Nc1ccccc1 | -8.05% |
| CC(C)(C)S(=O)(=O)c1ccccc1C(=O)O | 2.89% |
| O=C1CCNc2cc3ccccc3cc21 | -1.11% |
| OCC(O)/C=N/Nc1nc(Nc2ccccc2)nc(Nc2ccccc2)n1 (centres unmarked) | -6.41% |
| Cc1nc2ccccc2c(=O)n1/N=C/c1ccncc1 | -5.53% |
| COC(=O)c1scc(C)c1N/N=C(\C)c1ccc(F)cc1F | 3.33% |
| CS(=O)(=O)c1ccc(-n2nnc3ccccc32)c([N+](=O)[O-])c1 | -0.571% |
| COc1cccc(CSc2nc3cc4c(cc3cc2C)OCCO4)c1 | 14.7% |
| Clc1ccc(CCNc2nc3ccccc3s2)cc1 | 3.07% |
| CN(CCOc1ccc(Cl)cc1)C(=O)CN1C(=O)NC2(CCCCC2)C1=O | -31.3% |
| Cc1ccc2[nH]c(=O)c3cc(C(=O)N(C)Cc4ccco4)sc3c2c1 | 5.23% |
| COc1ccc2ccccc2c1/C=N/n1cnnc1 | 1.52% |
| C#CCOCCOCCOCCNc1nc(N2CCN(C(=O)[C@H]([C@@H](C)CC)n3cc([C@@H](N)CC(C)C)nn3)CC2)nc(N2CCN(C(=O)[C@H]([C@@H](C)CC)n3cc([C@@H](N)CC(C)C)nn3)CC2)n1.Cl | 8.18% |
| COc1ccc(N2CCN(C(=O)COC(=O)COc3cccc(C(F)(F)F)c3)CC2)cc1 | -2.98% |
| Cn1cc([N+](=O)[O-])c(C(=O)NCc2cc3cc(Cl)ccc3[nH]2)n1 | -10.8% |
| C/C(=N\NC(=O)Cn1ccc(C(F)(F)F)n1)c1ccc2c(c1)OCO2 | 3% |
| COCCOC(=O)C1=C(C)NC2=C(C(=O)CC(C)(C)C2)C1c1cccnc1 (centres unmarked) | 15.2% |
| COc1cccc(C(=O)N/N=c2/oc3ccccc3cc2C(N)=O)c1 | -4.21% |
| O=C(CSc1nnc(Cc2ccccc2)o1)c1ccc(F)cc1 | -3.62% |
| COCC(C)N1CCC(n2nccc2NC(=O)c2ccc3c(c2)OCO3)CC1 (centres unmarked) | 6.9% |
| Cc1cnc(CN2CCCC(C(=O)c3ccc4c5c(cccc35)CC4)C2)[nH]1 (centres unmarked) | -31.7% |

| Compound | hERG current change (%, negative = inhibition) at 10uM |
| --- | --- |
| Cc1ccc(NC(=O)NNC(=O)C2CC(c3cccnc3)=NO2)cc1 (centres unmarked) | 4.19% |
| C/C(CC(=O)Nc1cccc(Br)c1)=N\NC(=O)c1ccc(O)cc1O | 17.3% |
| O=C(CSc1ccc(Cl)cc1)N1CCN(c2c(Cl)cccc2[N+](=O)[O-])CC1 | -17.2% |
| Cc1nc2ccccc2c(=O)n1-c1ccc(Br)cn1 | -12.1% |
| O=[N+]([O-])c1ccccc1S(=O)(=O)NCc1ccco1 | 0.0868% |
| Clc1ccc(CSc2nnc(-c3ccncc3)o2)cc1 | -11.5% |
| COc1ccc(OC)c(S(=O)(=O)Nc2cc(C(=O)O)ccc2N2CC3CC(C2)c2cccc(=O)n2C3)c1 (centres unmarked) | 16.8% |
| COC(=O)c1ccc(NC(=O)CSc2nnc(-c3ccccc3Br)n2-c2ccccc2)cc1 | 3.33% |
| Cc1nnc(SCC(=O)O)o1 | 15% |
| Clc1cccc(-c2sc(Nc3ccccc3)n[n+]2-c2ccccc2)c1Cl.[Cl-] | 5.53% |
| O=C(Nc1ccccc1C(=O)NCCN1CCOCC1)c1ccc(Cl)cc1Cl | -9.15% |
| C/C(=N\N1CCCCCC1)c1c(O)n(-c2ccc(Cl)cc2)c(=O)[nH]c1=O | 7.42% |
| COc1cc(CC(=O)N(c2ccccc2)c2nc(C)cs2)cc(OC)c1OC | -14.8% |
| CC1=CC(=C2C(=O)NC(=S)NC2=O)C=C(C(F)(F)F)N1C | 8.8% |
| CCOc1ccc(CN(C)CC(=O)c2c(N)n(Cc3ccccc3)c(=O)n(CC)c2=O)cc1OC | -75.5% |
| COc1cccc2cc(C(=O)Oc3ccccc3)c(=O)oc12 | -1.84% |
| CC1Cc2cc(/C(O)=C3/C(=O)C(=O)N(CCN4CCOCC4)C3c3ccc(C(C)C)cc3)ccc2O1 (centres unmarked) | 6.49% |
| c1ccc(CSc2nc3ccccc3[nH]2)cc1 | 17.6% |
| CN(C(=O)COC(=O)c1ccc([N+](=O)[O-])cc1N)c1ccccc1 | 9.38% |
| Cc1ccccc1NC(=O)CSc1nc(-c2ccccc2)cc(=O)[nH]1 | 24.9% |
| Cn1c(CNC(=O)c2cccs2)nnc1SCC(=O)Nc1ccccc1 | 1.81% |
| C[C@H](NC(=O)[C@@H]1Cc2ccccc2CN1)C(=O)Nc1ccc2c(c1)OCCO2 | 3.18% |

| Compound | hERG current change (%, negative = inhibition) at 10uM |
| --- | --- |
| Cc1ccc(C(=O)NCCC(=O)NCc2cc(=O)n(C)c(=O)n2C)cc1 | 3.48% |
| COC(=O)c1ccccc1NC(=O)CNc1ccc(F)c(S(=O)(=O)N2CCOCC2)c1 | -38.1% |
| Clc1cccc(CN2CCCCCC2)c1Cl | 0.798% |
| Cc1cccc(C)c1NC(=O)CSc1nnc([C@@H]2CCCN2C(=O)OC(C)(C)C)o1 | 2.31% |
| COc1cc(CNC(=O)C2CCC(=O)N(C3CCCCCC3)C2)cc(OC)c1 (centres unmarked) | -14.9% |
| COc1ccc(Cl)cc1/C=N/NC(=O)c1c(-c2ccccc2)noc1C | 2.15% |
| N/C(=N\OC(=O)c1ccccc1Cl)c1ccncc1 | 19.1% |
| Nc1nc(Sc2ccc(C(F)(F)F)cc2[N+](=O)[O-])n[nH]1 | -3.27% |
| COc1ccc(N2CCN(C(c3cccs3)c3nnnn3C3CCCC3)CC2)cc1 (centres unmarked) | -19.3% |
| CCCCN(C(=O)c1ccccc1OCc1ccc(F)cc1)c1c(N)n(CC(C)C)c(=O)[nH]c1=O | -5.4% |
| COC(=O)c1ccc(NC(=O)CSc2nnc(-c3cccnc3)o2)cc1 | -0.978% |
| CCNc1nn2ccccc2c1/C=C(\C#N)C(=O)OCC | -4.06% |
| Cc1oc(C(=O)O)cc1COc1cccc2cccnc12 | -19.2% |
| CCOc1cc(-c2noc(CCC(=O)NCC3CCCO3)n2)ccc1OC (centres unmarked) | -3.08% |
| Cc1cc(C)cc(N2CC(C(=O)Nc3cc(C)on3)CC2=O)c1 (centres unmarked) | 9.42% |
| Cn1c(/C=C/N(Cc2ccccc2)c2ccccc2)c([N+](=O)[O-])c(=O)n(C)c1=O | -24.1% |
| CCc1nc(SCCO)c2oc3ccccc3c2n1 | 2.63% |
| COc1ccc(-c2cc3nc(C)cc(C)n3n2)cc1 | -2.36% |
| COC(=O)C1=C(c2ccc(F)cc2OCc2ccccc2)C[C@@H]2CC[C@H]1N2C(=O)NCc1ccc(Br)cc1 | 19.2% |
| CCOC(=O)c1c(C)[nH]c(C(=O)COC(=O)Cn2cc(C(F)(F)F)ccc2=O)c1C | 5.33% |
| CCn1c(SCC(=O)Nc2ccccc2)nnc1-c1ccc(S(=O)(=O)N2CCOCC2)cc1 | -16.5% |
| Cn1c(C(=O)NCc2ccccn2)cc2c(=O)n(C)c3ccccc3c21 | 2.2% |

| Compound | hERG current change (%, negative = inhibition) at 10uM |
| --- | --- |
| OC(CN1c2ccccc2Sc2ccccc21)Cn1nnc2ccccc21 (centres unmarked) | 15.8% |
| Cl.Nc1nonc1C(=O)NCCNCc1ccccc1OCc1ccccc1F | -60.5% |
| O=C(N=Nc1c(O)n(Cc2ccccc2)c2ccccc12)c1cc2ccccc2cc1O | 6.28% |
| O=C(O)C1CCC(N2C(=O)C3CCCCC3C2=O)CC1 (centres unmarked) | 11.2% |
| c1ccc(-c2nc(-c3cccs3)[nH]c2-c2ccccc2)cc1 | 22.5% |
| O=C(COc1ccc(-c2ccccc2)cc1)N/N=C/c1cccnc1 | 7.95% |
| COc1ccccc1CCNC(=O)C(=O)NCCC1CCCCN1S(=O)(=O)c1ccccc1 (centres unmarked) | -12.6% |
| Clc1ccc(SCc2cc(-c3ccccc3)no2)cc1 | -5.94% |
| COc1ccc(C(CNC(=O)Cc2ccccc2)N2CCCCC2)cc1 (centres unmarked) | -1.26% |
| CCc1cc(C(=O)OC)c(NC(=O)CN2CCN(C(=O)C3CCCO3)CC2)s1 (centres unmarked) | -47.2% |
| CCN(Cc1cccc(OC)c1)CC1CCCN(CCc2cccc(OC)c2)C1 (centres unmarked) | -47.3% |
| c1ccc(C(Cc2nc(-c3cccnc3)no2)c2ccccc2)cc1 | 16.9% |
| S=C1NCN(Cc2ccccc2)CN1 | 5.01% |
| COc1ccc(C(=O)COC(=O)c2ccc(NC(C)=O)cc2)cc1[N+](=O)[O-] | 0.979% |
| N#Cc1c(NC(=O)C2CC(Cl)=CCC2C(=O)O)sc2c1CCCCC2 (centres unmarked) | -25.8% |
| CCOC(=O)C1CCCN(Cc2nc(C3CC3)no2)C1 (centres unmarked) | 13.5% |
| COc1cc(OC)cc(C(=O)NC(=S)N2CCCCCC2)c1 | 13.3% |
| Cc1c(C(=O)Nc2cccc([N+](=O)[O-])c2)cnn1-c1ccccc1 | -12.7% |
| CC1CC2(C)CC(C)C1(COC(=O)Nc1ccccc1)CO2 (centres unmarked) | 5% |
| N#Cc1ccc(-c2ccc(OCC(=O)NCCc3ccccc3)cc2)cc1 | 9.16% |
